# Measurements: the supplement of paper PMC3334620
# Over roughly 33,000 sequences, “E-score (-0.5 to 0.5)” has its median near -0.016; the highest 2% begin near 0.31. This is one part of the list.
# Target: Cst6 (UniProt P40535)
# Assay: PBM E-score (8-mer binding enrichment) (E-score (-0.5 to 0.5)); higher = stronger / more preferred TF binding; most listed sequences are background and not binding sites
# Conditions: protein concentration: 200 nM; construct: GST-DNA-binding domain
# Procedure, shortened: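 For each ungapped eight-base word taken together with its reverse complement, the Universal PBM Analysis Suite assigned an E-score. Binding data came from GST-tagged yeast transcription factors, applied at about 100-200 nM, on universal all-10-mer Agilent arrays made double-stranded by primer extension. Fluorescent anti-GST marked bound protein, and scans were normalised with masliner.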
row,Sequence,PBM E-score
1,ACGGTACA,0.028
2,AATGGTCG,-0.143
3,AAGGGGGT,-0.299
4,CAGTCCTC,-0.209
5,ATCCCGTC,-0.0314
6,CAAGCCGC,-0.124
7,GCTTTGTA,0.091
8,ATTGCATG,0.261
9,CCCTGCCC,-0.341
10,AGTAAATG,0.0991
11,AACGATCC,-0.19
12,ACTTTGAG,0.0324
13,ACCTGTGA,0.112
14,AGGTGTGG,-0.257
15,GTCTAGGA,-0.17
16,GTATTTTA,0.121
17,AGATGGCG,0.107
18,CACCATAA,0.106
19,ATCATTCG,0.264
20,TACCAGCA,0.0587
21,GGGAGCAC,-0.335
22,AGTAGCAG,-0.0246

row,Sequence,PBM E-score
1,ATCGCGAG,0.0213
2,GAAGTTAC,0.183
3,GATTGTAC,-0.0207
4,CCAATACA,0.00935
5,ACTTATAA,0.119
6,TCTGAGAA,0.0304
7,ATAAGTCA,0.0943
8,CAAGCCCG,-0.165
9,GTTTCTCA,-0.0106
10,TAGAGGCA,-0.0879
11,AAGCTGGA,-0.208
12,CACCATCA,0.147
13,AACTGGTG,-0.164
14,CAATCGAA,0.135
15,CAAGCCCA,-0.177
16,GATATAGC,0.0466
17,AGATACGG,0.133
18,TAAAGGGA,-0.112
19,AAGTCCGA,-0.268
20,CCTTTTAA,0.0673
21,CTGCGATA,-0.0624
22,AAGAGCCA,0.0603

row,Sequence,PBM E-score
1,GACACATC,0.0845
2,GACACTCC,0.0359
3,CCAGGAGC,-0.248
4,ATCCAATG,0.0921
5,CTCATGGA,-0.00062
6,GGGATGTA,-0.0844
7,AAGAGACC,-0.125
8,GTATTGAC,0.148
9,ACGACCGA,-0.136
10,GGGGAAAC,-0.0822
11,GAGTCGAC,-0.112
12,AGAAAGTC,-0.0873
13,ATAAATCG,0.167
14,ACATAGTC,-0.00669
15,AGGCTTGG,-0.173
16,AACCCGCA,-0.099
17,CCGGAAAC,-0.162
18,GGTCAGAA,-0.137
19,GGAATTAA,0.215
20,CATACAAG,0.0443
21,CCATGAGC,-0.157
22,CTCCGAAC,-0.166

row,Sequence,PBM E-score
1,ATGTGTTG,0.222
2,ACTCTCAG,0.14
3,ACCCTGCT,-0.34
4,CGTCGACA,0.232
5,GACAAGCC,-0.0452
6,GACTGGGA,-0.111
7,ATAGCGAG,-0.0715
8,GACAGGGC,0.016
9,CTCCCAAC,-0.175
10,ACTCAGCA,-0.148
11,CTCGTCGC,-0.0701
12,AGGTCAAA,0.0867
13,TCTCCAGA,-0.201
14,AAGAGTGA,0.162
15,AGAACACT,0.0744
16,GCGTCATA,0.463
17,CTACCAAA,-0.00544
18,ACCTGTGC,-0.0633
19,GGTTGCTA,-0.207
20,CGAGTGAG,-0.0113
21,GTCTTCGA,-0.117
22,ACCAGAGG,-0.12

row,Sequence,PBM E-score
1,ACAATAGG,-0.0365
2,AATAAAGA,0.234
3,AATGCATA,0.0177
4,AGCGGTAA,-0.0855
5,ATAGGCAC,0.0161
6,AGTTAGCA,0.0735
7,ACTATACG,0.0511
8,AGCCCGAT,-0.149
9,TGTCCCAA,-0.0255
10,ATCGTGGG,0.00964
11,ATAGTCTG,-0.0571
12,CGTATCTC,0.0841
13,AGAGGCCA,-0.23
14,GACTCCTC,-0.2
15,AGTGCGAG,-0.21
16,TCGTCTAA,-0.0165
17,CCGGGATC,-0.241
18,ACGTATGG,0.158
19,ACTTCAAG,0.0998
20,ACTGTCTA,0.0786
21,GCTTCGCA,-0.222
22,AACAGGGG,-0.144
